The list shows a part of the results. Many values rest on one well or one pass, so single values are uncertain.
How the values were obtained:
Assay in all cases: cell count relative to DMSO control; melanoma cells; higher = more viable cells
Conditions in all cases: library dose: low library concentration; 72 h
[1] = system: WM115
[2] = system: WM1716
[3] = system: WM1745
[4] = system: WM3526
[5] = system: WM3619
[6] = system: WM451Lu
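Note: cell number obtained by counting DAPI-stained nuclei in high-throughput microscope images with image analysis software, screen run in 1,536-well plates.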

COCC[n+]1c2c(n(Cc3cnccn3)c1C)C(=O)c1ccccc1C2=O + O=C(O)C(=O)Nc1sc2c(c1C(=O)O)CCNC2 [TCS401] (first compound 0.0004 µM, partner dose 1.66667 µM)
cell count [1]: 87.3% | cell count [2]: 91.9% | cell count [3]: 89.6% | cell count [4]: 99.8% | cell count [5]: 111% | cell count [6]: 84%

C#Cc1cccc(Nc2ncnc3cc(OCCOC)c(OCCOC)cc23)c1 [erlotinib] + Cn1nnc2c(C(N)=O)ncn2c1=O [temozolomide] (first compound 0.8 µM, partner dose 2 µM)
cell count [1]: 96.1% | cell count [2]: 84% | cell count [3]: 95.9% | cell count [4]: 76.6% | cell count [5]: 97.2% | cell count [6]: 92.5%

Nc1cccc2c1CN(C1CCC(=O)NC1=O)C2=O (configuration not stated) [lenalidomide] + COc1cc(Nc2ncc(F)c(Nc3ccc4c(n3)NC(=O)C(C)(C)O4)n2)cc(OC)c1OC [Tamatinib] (first compound 1 µM, partner dose 0.4 µM)
cell count [1]: 85% | cell count [2]: 77.1% | cell count [3]: 58.4% | cell count [4]: 102% | cell count [5]: 106% | cell count [6]: 137%

Cn1c(Nc2ccc(C(F)(F)F)cc2)nc2cc(Oc3ccnc(-c4ncc(C(F)(F)F)[nH]4)c3)ccc21 + CC(C)(C)c1cnc(CSc2cnc(NC(=O)C3CCNCC3)s2)o1 [SNS-032] (first compound 0.08 µM, partner dose 0.01 µM)
cell count [1]: 37.5% | cell count [2]: 70.8% | cell count [3]: 60.4% | cell count [4]: 44.9% | cell count [5]: 63.8% | cell count [6]: 84.5%

Nc1cccc2c1CN(C1CCC(=O)NC1=O)C2=O (configuration not stated) [lenalidomide] + C=CCn1c(=O)c2cnc(Nc3ccc(N4CCN(C)CC4)cc3)nc2n1-c1cccc(C(C)(C)O)n1 [MK1775] (first compound 1 µM, partner dose 0.02 µM)
cell count [1]: 83.6% | cell count [2]: 82.4% | cell count [3]: 65.6% | cell count [4]: 105% | cell count [5]: 108% | cell count [6]: 71.8%

COCC[n+]1c2c(n(Cc3cnccn3)c1C)C(=O)c1ccccc1C2=O + COc1cc(N2CCC(N3CCN(C)CC3)CC2)ccc1Nc1ncc(Cl)c(Nc2ccccc2S(=O)(=O)C(C)C)n1 [NVP-TAE684] (first compound 0.0004 µM, partner dose 0.08 µM)
cell count [1]: 86.2% | cell count [2]: 80.1% | cell count [3]: 104% | cell count [4]: 88.2% | cell count [5]: 104% | cell count [6]: 64%

C#Cc1cccc(Nc2ncnc3cc(OCCOC)c(OCCOC)cc23)c1 [erlotinib] + CO[C@@H]1[C@H](N(C)C(=O)c2ccccc2)C[C@H]2O[C@]1(C)n1c3ccccc3c3c4c(c5c6ccccc6n2c5c31)C(=O)NC4 [Midostaurin] (first compound 0.8 µM, partner dose 0.08 µM)
cell count [1]: 77% | cell count [2]: 67.4% | cell count [3]: 65% | cell count [4]: 71.4% | cell count [5]: 74.4% | cell count [6]: 109%

OCc1c[nH]c2ccccc12 [Indole-3-carbinol] + COc1cc(N2CCC(N3CCN(C)CC3)CC2)ccc1Nc1ncc(Cl)c(Nc2ccccc2S(=O)(=O)C(C)C)n1 [NVP-TAE684] (first compound 0.8 µM, partner dose 0.08 µM)
cell count [1]: 84.4% | cell count [2]: 98.4% | cell count [3]: 80.8% | cell count [4]: 87.4% | cell count [5]: 58.3% | cell count [6]: 82.6%

COCC[n+]1c2c(n(Cc3cnccn3)c1C)C(=O)c1ccccc1C2=O + Cn1nnc2c(C(N)=O)ncn2c1=O [temozolomide] (first compound 0.0004 µM, partner dose 2 µM)
cell count [1]: 98% | cell count [2]: 82.6% | cell count [3]: 124% | cell count [4]: 80% | cell count [5]: 105% | cell count [6]: 59.7%

Clc1ccc(Nc2nnc(Cc3ccncc3)c3ccccc23)cc1 [vatalanib] + COc1cc(Nc2ncc(F)c(Nc3ccc4c(n3)NC(=O)C(C)(C)O4)n2)cc(OC)c1OC [Tamatinib] (first compound 2 µM, partner dose 0.4 µM)
cell count [1]: 82.7% | cell count [2]: 80% | cell count [3]: 63.9% | cell count [4]: 71.5% | cell count [5]: 86.7% | cell count [6]: 109%

Nc1cccc2c1CN(C1CCC(=O)NC1=O)C2=O (configuration not stated) [lenalidomide] + O=C1NC(=O)/C(=C/c2ccc(-c3ccc(F)cc3O)o2)S1 [AS252424] (first compound 1 µM, partner dose 1 µM)
cell count [1]: 107% | cell count [2]: 100% | cell count [3]: 95.5% | cell count [4]: 98.2% | cell count [5]: 119% | cell count [6]: 77.8%

Clc1ccc(Nc2nnc(Cc3ccncc3)c3ccccc23)cc1 [vatalanib] + COc1cc2ncnc(Nc3ccc(Oc4ccccc4)cc3)c2cc1OC [SrcI1] (first compound 2 µM, partner dose 2 µM)
cell count [1]: 103% | cell count [2]: 116% | cell count [3]: 77.8% | cell count [4]: 107% | cell count [5]: 141% | cell count [6]: 106%

OCc1c[nH]c2ccccc12 [Indole-3-carbinol] + Cn1nnc2c(C(N)=O)ncn2c1=O [temozolomide] (first compound 0.8 µM, partner dose 2 µM)
cell count [1]: 102% | cell count [2]: 91.9% | cell count [3]: 94.2% | cell count [4]: 89.8% | cell count [5]: 122% | cell count [6]: 98.1%

C#Cc1cccc(Nc2ncnc3cc(OCCOC)c(OCCOC)cc23)c1 [erlotinib] + OCCn1cc(-c2cnc3nnn(Cc4ccc5ncccc5c4)c3n2)cn1 [PF04217903] (first compound 0.8 µM, partner dose 1 µM)
cell count [1]: 91.8% | cell count [2]: 72.2% | cell count [3]: 77.5% | cell count [4]: 100% | cell count [5]: 108% | cell count [6]: 106%

Clc1ccc(Nc2nnc(Cc3ccncc3)c3ccccc23)cc1 [vatalanib] + Cn1cc(/C=C2\C(=O)Nc3cccnc32)c2ccccc21 [GW441756] (first compound 2 µM, partner dose 0.4 µM)
cell count [1]: 87.5% | cell count [2]: 98.6% | cell count [3]: 86.3% | cell count [4]: 110% | cell count [5]: 112% | cell count [6]: 98.5%

COCC[n+]1c2c(n(Cc3cnccn3)c1C)C(=O)c1ccccc1C2=O + O=C(O)c1ccc(-c2c[nH]c3ncc(-c4ccccc4)cc23)cc1C1CCCC1 [GSK650394] (first compound 0.0004 µM, partner dose 0.16 µM)
cell count [1]: 96.4% | cell count [2]: 85.6% | cell count [3]: 93.3% | cell count [4]: 80.3% | cell count [5]: 115% | cell count [6]: 54.6%

COCC[n+]1c2c(n(Cc3cnccn3)c1C)C(=O)c1ccccc1C2=O + CO[C@@H]1[C@H](N(C)C(=O)c2ccccc2)C[C@H]2O[C@]1(C)n1c3ccccc3c3c4c(c5c6ccccc6n2c5c31)C(=O)NC4 [Midostaurin] (first compound 0.0004 µM, partner dose 0.08 µM)
cell count [1]: 80.1% | cell count [2]: 72.9% | cell count [3]: 110% | cell count [4]: 80% | cell count [5]: 86.1% | cell count [6]: 49.9%

Clc1ccc(Nc2nnc(Cc3ccncc3)c3ccccc23)cc1 [vatalanib] + NC(=O)Nc1cc(-c2cccc(F)c2)sc1C(=O)N[C@H]1CCCNC1 [AZD7762] (first compound 2 µM, partner dose 0.02 µM)
cell count [1]: 89.4% | cell count [2]: 78.4% | cell count [3]: 89.9% | cell count [4]: 84.2% | cell count [5]: 73% | cell count [6]: 95.3%

Cn1c(Nc2ccc(C(F)(F)F)cc2)nc2cc(Oc3ccnc(-c4ncc(C(F)(F)F)[nH]4)c3)ccc21 + Oc1nc(-c2ccc(C(F)(F)F)cc2)nc2c1CSCC2 [XAV939] (first compound 0.08 µM, partner dose 2 µM)
cell count [1]: 46.8% | cell count [2]: 43.7% | cell count [3]: 52.7% | cell count [4]: 46.6% | cell count [5]: 71.4% | cell count [6]: 102%

OCc1c[nH]c2ccccc12 [Indole-3-carbinol] + O=C(O)c1ccc(-c2c[nH]c3ncc(-c4ccccc4)cc23)cc1C1CCCC1 [GSK650394] (first compound 0.8 µM, partner dose 0.16 µM)
cell count [1]: 90.4% | cell count [2]: 92% | cell count [3]: 94.9% | cell count [4]: 104% | cell count [5]: 85.9% | cell count [6]: 94.3%

O=C(CCCCCCC(=O)Nc1ccccc1)NO [vorinostat] + COc1cc2c(Oc3ccc4[nH]c(C)cc4c3F)ncnc2cc1OCCCN1CCCC1 [cediranib] (first compound 0.08 µM, partner dose 0.4 µM)
cell count [1]: 101% | cell count [2]: 116% | cell count [3]: 108% | cell count [4]: 94.2% | cell count [5]: 99% | cell count [6]: 82.6%

COCC[n+]1c2c(n(Cc3cnccn3)c1C)C(=O)c1ccccc1C2=O + COC(=O)c1sccc1S(=O)(=O)Nc1ccc(Nc2ccccc2)cc1OC [GSK0660] (first compound 0.0004 µM, partner dose 1 µM)
cell count [1]: 91.5% | cell count [2]: 86% | cell count [3]: 97.2% | cell count [4]: 95.2% | cell count [5]: 101% | cell count [6]: 53.6%

OCc1c[nH]c2ccccc12 [Indole-3-carbinol] + C[C@]1(c2nc3c(C(N)=O)cccc3[nH]2)CCCN1 [Veliparib] (first compound 0.8 µM, partner dose 1.4 µM)
cell count [1]: 93% | cell count [2]: 84.5% | cell count [3]: 85.3% | cell count [4]: 118% | cell count [5]: 73.9% | cell count [6]: 92.7%

Cn1c(Nc2ccc(C(F)(F)F)cc2)nc2cc(Oc3ccnc(-c4ncc(C(F)(F)F)[nH]4)c3)ccc21 + Cc1cc(N2CCOCC2)cc2[nH]c(-c3c(NC[C@@H](O)c4cccc(Cl)c4)cc[nH]c3=O)nc12 [BMS536924] (first compound 0.08 µM, partner dose 0.2 µM)
cell count [1]: 56.3% | cell count [2]: 87.1% | cell count [3]: 58.1% | cell count [4]: 41.9% | cell count [5]: 67.9% | cell count [6]: 76.7%

OCc1c[nH]c2ccccc12 [Indole-3-carbinol] + COc1ccc(-c2ccc3c(N4CCOCC4)nc(N4C[C@@H](C)O[C@@H](C)C4)nc3n2)cc1CO [KU0063794] (first compound 0.8 µM, partner dose 0.02 µM)
cell count [1]: 92% | cell count [2]: 97.3% | cell count [3]: 96% | cell count [4]: 111% | cell count [5]: 132% | cell count [6]: 112%

COCC[n+]1c2c(n(Cc3cnccn3)c1C)C(=O)c1ccccc1C2=O + C=CCn1c(=O)c2cnc(Nc3ccc(N4CCN(C)CC4)cc3)nc2n1-c1cccc(C(C)(C)O)n1 [MK1775] (first compound 0.0004 µM, partner dose 0.02 µM)
cell count [1]: 82.6% | cell count [2]: 87.9% | cell count [3]: 110% | cell count [4]: 73.2% | cell count [5]: 80.8% | cell count [6]: 76.4%

OCc1c[nH]c2ccccc12 [Indole-3-carbinol] + Cn1cncc1[C@@](N)(c1ccc(Cl)cc1)c1ccc2c(c1)c(-c1cccc(Cl)c1)cc(=O)n2C [tipifarnib] (first compound 0.8 µM, partner dose 0.01 µM)
cell count [1]: 95.2% | cell count [2]: 72.4% | cell count [3]: 97.3% | cell count [4]: 96.8% | cell count [5]: 92.3% | cell count [6]: 98.9%
